Measurements as given in the BET-seq Pho4 binding data (Le et al. 2018).
The list shows a part of the results. These are noisy estimates, calculated here from bound and input reads.

These sequences were tested against T1, Pho4 (S. cerevisiae) (UniProt P07270) (assay: relative binding free energy (BET-seq); higher = weaker binding). Conditions: reference: library average.
T1 sequence: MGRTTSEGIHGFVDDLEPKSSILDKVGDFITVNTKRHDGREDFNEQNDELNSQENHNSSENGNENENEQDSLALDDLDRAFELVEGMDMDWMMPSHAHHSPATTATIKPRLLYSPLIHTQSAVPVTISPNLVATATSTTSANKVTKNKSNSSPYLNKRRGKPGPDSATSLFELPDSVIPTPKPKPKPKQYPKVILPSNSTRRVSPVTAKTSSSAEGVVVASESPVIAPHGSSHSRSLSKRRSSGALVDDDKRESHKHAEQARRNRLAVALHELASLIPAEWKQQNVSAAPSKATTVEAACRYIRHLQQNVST
With GATTGCACGTGTGGTA the “relative binding free energy” value was 0.16 kcal/mol. ATGAGCACGTGTACGG was tested, and the “relative binding free energy” value was -0.1 kcal/mol. TGCGGCACGTGGAAGA was tested, and the “relative binding free energy” value was 0 kcal/mol. With TTGGGCACGTGGGTAG the “relative binding free energy” value was -0.09 kcal/mol. In the case of ATATGCACGTGCCGGG, the “relative binding free energy” value is reported as -0.12 kcal/mol. In the case of AGTGGCACGTGAGGAT, the “relative binding free energy” value is reported as 0.08 kcal/mol. With AGTGGCACGTGTTCAT the “relative binding free energy” value was -0.06 kcal/mol. With GTGGTCACGTGAAGAA the “relative binding free energy” value was 0.21 kcal/mol. In the case of ATGGGCACGTGAAGGT, the “relative binding free energy” value is reported as 0.23 kcal/mol. For AGACTCACGTGTTGGA, the “relative binding free energy” value was 0.31 kcal/mol. TCTTTCACGTGATTGA was tested, and the “relative binding free energy” value was 0.37 kcal/mol. In the case of CGGGTCACGTGCCGTG, the “relative binding free energy” value is reported as 0.04 kcal/mol. With CGGTACACGTGTGGGT the “relative binding free energy” value was 0.13 kcal/mol. AATAGCACGTGGAACG was tested, and the “relative binding free energy” value was 0.24 kcal/mol. TTTATCACGTGCAGGG was tested, and the “relative binding free energy” value was 0.12 kcal/mol. For TAAGACACGTGGTGTG, the “relative binding free energy” value was -0.16 kcal/mol. With GGTCTCACGTGGAAGG the “relative binding free energy” value was 0.29 kcal/mol. For GGTGGCACGTGTTACG, the “relative binding free energy” value was -0.1 kcal/mol. In the case of GGGTTCACGTGTCAAG, the “relative binding free energy” value is reported as 0.26 kcal/mol. GGGGTCACGTGACTGC was tested, and the “relative binding free energy” value was 0.4 kcal/mol. ATTTTCACGTGGTCGT was tested, and the “relative binding free energy” value was 0.26 kcal/mol. TGTCGCACGTGGAATA was tested, and the “relative binding free energy” value was 0.02 kcal/mol. For TAATGCACGTGGTTCA, the “relative binding free energy” value was -0.03 kcal/mol. With ATGTCCACGTGGTTAG the “relative binding free energy” value was -0.1 kcal/mol. For GATAACACGTGTTATG, the “relative binding free energy” value was -0.1 kcal/mol. In the case of TGGGTCACGTGTGAGG, the “relative binding free energy” value is reported as 0.22 kcal/mol. With TTGGGCACGTGTCGTC the “relative binding free energy” value was -0.15 kcal/mol. GTATGCACGTGAAGTT was tested, and the “relative binding free energy” value was 0.25 kcal/mol. In the case of ACGATCACGTGGAGGG, the “relative binding free energy” value is reported as 0.05 kcal/mol. With AGGTTCACGTGTCAAG the “relative binding free energy” value was 0.25 kcal/mol. In the case of TTATTCACGTGATGTC, the “relative binding free energy” value is reported as 0.31 kcal/mol. In the case of TAGTACACGTGAGTGC, the “relative binding free energy” value is reported as 0.14 kcal/mol. With TTTCGCACGTGTGAGA the “relative binding free energy” value was 0.03 kcal/mol. For TTATTCACGTGAGATA, the “relative binding free energy” value was 0.41 kcal/mol. For TGCGACACGTGTAGGG, the “relative binding free energy” value was -0.03 kcal/mol. In the case of AGTAGCACGTGTCTGG, the “relative binding free energy” value is reported as -0.21 kcal/mol. TGTGGCACGTGTATTG was tested, and the “relative binding free energy” value was -0.01 kcal/mol. With AGTCGCACGTGGTGAG the “relative binding free energy” value was -0.03 kcal/mol. With TGTGTCACGTGCTGAT the “relative binding free energy” value was -0.05 kcal/mol. TGATGCACGTGTATAT was tested, and the “relative binding free energy” value was 0.05 kcal/mol. For ATTCTCACGTGGGGAA, the “relative binding free energy” value was 0.08 kcal/mol. In the case of TAGGGCACGTGGCTTT, the “relative binding free energy” value is reported as -0.16 kcal/mol. TGGTGCACGTGTACGT was tested, and the “relative binding free energy” value was -0.09 kcal/mol. With CTTTACACGTGGATGG the “relative binding free energy” value was 0.07 kcal/mol. With AGGAGCACGTGAGAGG the “relative binding free energy” value was 0.17 kcal/mol. TTCTTCACGTGATGAG was tested, and the “relative binding free energy” value was 0.24 kcal/mol. With CGGGACACGTGTAATG the “relative binding free energy” value was 0.17 kcal/mol. For ATTTGCACGTGGATGA, the “relative binding free energy” value was 0.03 kcal/mol. For AGAAACACGTGGGAAG, the “relative binding free energy” value was 0.07 kcal/mol. In the case of GAAATCACGTGGGTAG, the “relative binding free energy” value is reported as -0.04 kcal/mol. For TGCATCACGTGGGGCA, the “relative binding free energy” value was 0.02 kcal/mol. For GTTAGCACGTGGTGCT, the “relative binding free energy” value was -0.15 kcal/mol. In the case of GGTTCCACGTGTTGTG, the “relative binding free energy” value is reported as 0 kcal/mol. In the case of TGGGTCACGTGGGCAG, the “relative binding free energy” value is reported as -0.01 kcal/mol. For TGTACCACGTGTGGTA, the “relative binding free energy” value was -0.07 kcal/mol. With TTTTCCACGTGTTTAA the “relative binding free energy” value was 0.15 kcal/mol. TAGGACACGTGTTTTA was tested, and the “relative binding free energy” value was -0.07 kcal/mol. In the case of CGGGTCACGTGTGATT, the “relative binding free energy” value is reported as 0.29 kcal/mol. With GGTCTCACGTGCATGG the “relative binding free energy” value was 0.2 kcal/mol. With AGTATCACGTGGTTTG the “relative binding free energy” value was 0 kcal/mol. For GGTTGCACGTGTCTAG, the “relative binding free energy” value was 0.03 kcal/mol. With TCCTTCACGTGTTGTG the “relative binding free energy” value was 0.14 kcal/mol. With ATTGACACGTGAGTGT the “relative binding free energy” value was 0.23 kcal/mol. In the case of TCTTTCACGTGATTAT, the “relative binding free energy” value is reported as 0.21 kcal/mol. With GGTTTCACGTGTTCGG the “relative binding free energy” value was 0.44 kcal/mol. In the case of AGTGGCACGTGGGAAA, the “relative binding free energy” value is reported as -0.13 kcal/mol. For AAGGGCACGTGAAAGG, the “relative binding free energy” value was 0.12 kcal/mol. In the case of TCTGGCACGTGGCTTT, the “relative binding free energy” value is reported as -0.05 kcal/mol. GTCGGCACGTGATGGG was tested, and the “relative binding free energy” value was 0.19 kcal/mol. In the case of GGTCGCACGTGGAAGT, the “relative binding free energy” value is reported as 0.08 kcal/mol. In the case of TAGAGCACGTGAGATG, the “relative binding free energy” value is reported as 0.12 kcal/mol. GTTAGCACGTGTCGAT was tested, and the “relative binding free energy” value was 0.01 kcal/mol. ATTTGCACGTGGAGAG was tested, and the “relative binding free energy” value was -0.09 kcal/mol. With GAATTCACGTGGGCTT the “relative binding free energy” value was 0.24 kcal/mol. With TCTTTCACGTGAGGCG the “relative binding free energy” value was 0.39 kcal/mol. In the case of GTGGGCACGTGATGCT, the “relative binding free energy” value is reported as 0.14 kcal/mol. For ATTGCCACGTGGAGGT, the “relative binding free energy” value was -0.28 kcal/mol. In the case of GGAGTCACGTGGCATG, the “relative binding free energy” value is reported as 0 kcal/mol. In the case of CATGGCACGTGTTCTT, the “relative binding free energy” value is reported as 0.06 kcal/mol. In the case of ACTTGCACGTGTTTAG, the “relative binding free energy” value is reported as 0.02 kcal/mol. With ATAAGCACGTGTTTAG the “relative binding free energy” value was -0.09 kcal/mol. In the case of TTAGTCACGTGGCGGA, the “relative binding free energy” value is reported as -0.04 kcal/mol. In the case of GGTTGCACGTGTACTT, the “relative binding free energy” value is reported as 0.29 kcal/mol. In the case of GGGGTCACGTGAGAAT, the “relative binding free energy” value is reported as 0.4 kcal/mol. In the case of TAGTTCACGTGGGCTG, the “relative binding free energy” value is reported as 0.22 kcal/mol. ATCATCACGTGTTTGG was tested, and the “relative binding free energy” value was 0.15 kcal/mol. For GTGGTCACGTGTTGCG, the “relative binding free energy” value was 0.12 kcal/mol. With TATTACACGTGGGTAA the “relative binding free energy” value was 0.07 kcal/mol. With TAGGGCACGTGGGTTT the “relative binding free energy” value was -0.1 kcal/mol. For ATATGCACGTGTTTAG, the “relative binding free energy” value was -0.13 kcal/mol. AGTAACACGTGAGGGC was tested, and the “relative binding free energy” value was 0.2 kcal/mol. With AGGGTCACGTGAGCCG the “relative binding free energy” value was 0.29 kcal/mol. With GAAGTCACGTGAGCGG the “relative binding free energy” value was 0.32 kcal/mol. For GATGTCACGTGAATGG, the “relative binding free energy” value was 0.3 kcal/mol. With GTCCTCACGTGTAGGG the “relative binding free energy” value was 0.25 kcal/mol. With TTGCTCACGTGGGAGT the “relative binding free energy” value was -0.01 kcal/mol. GCCTGCACGTGAGGTG was tested, and the “relative binding free energy” value was 0.41 kcal/mol. GAGGGCACGTGGCATG was tested, and the “relative binding free energy” value was -0.23 kcal/mol. In the case of CAGGGCACGTGGGATT, the “relative binding free energy” value is reported as 0 kcal/mol. In the case of AGTTACACGTGAGGTG, the “relative binding free energy” value is reported as 0.3 kcal/mol. In the case of CTGGCCACGTGGTGCG, the “relative binding free energy” value is reported as -0.24 kcal/mol. GTTTACACGTGCCGGG was tested, and the “relative binding free energy” value was 0.01 kcal/mol. For TGGCTCACGTGTCGAG, the “relative binding free energy” value was 0.28 kcal/mol. In the case of TTTCGCACGTGCTTGG, the “relative binding free energy” value is reported as -0.07 kcal/mol. TGGTTCACGTGGGATT was tested, and the “relative binding free energy” value was 0.25 kcal/mol. With ACGATCACGTGGGTTG the “relative binding free energy” value was -0.13 kcal/mol. GGGTGCACGTGGGCTT was tested, and the “relative binding free energy” value was -0.07 kcal/mol. In the case of TGTTTCACGTGCGAAG, the “relative binding free energy” value is reported as 0.33 kcal/mol. TTGAGCACGTGGGATG was tested, and the “relative binding free energy” value was -0.24 kcal/mol. CTTAGCACGTGCGGGT was tested, and the “relative binding free energy” value was -0.02 kcal/mol. With GTGAGCACGTGGTTTG the “relative binding free energy” value was -0.08 kcal/mol. For TAGAACACGTGGTTAT, the “relative binding free energy” value was 0 kcal/mol. For ATGCGCACGTGTGGTA, the “relative binding free energy” value was -0.12 kcal/mol. GTGCGCACGTGGGGGA was tested, and the “relative binding free energy” value was -0.26 kcal/mol. With TTGTGCACGTGGCCTT the “relative binding free energy” value was -0.26 kcal/mol. With TTAGTCACGTGGGAAA the “relative binding free energy” value was -0.01 kcal/mol. With GGGAGCACGTGTCTTG the “relative binding free energy” value was -0.21 kcal/mol. TGTGTCACGTGCGGAC was tested, and the “relative binding free energy” value was 0.06 kcal/mol. With AGGGTCACGTGCCATG the “relative binding free energy” value was 0.04 kcal/mol. ATAGGCACGTGATAGG was tested, and the “relative binding free energy” value was -0.08 kcal/mol. With AGGTCCACGTGAAGTT the “relative binding free energy” value was 0.22 kcal/mol. In the case of TAAGTCACGTGGTTAT, the “relative binding free energy” value is reported as -0.04 kcal/mol. For AATGTCACGTGGTGGC, the “relative binding free energy” value was 0.13 kcal/mol. In the case of AGGTTCACGTGGGCAC, the “relative binding free energy” value is reported as 0.14 kcal/mol. In the case of TGTCTCACGTGGTCGA, the “relative binding free energy” value is reported as 0.18 kcal/mol. In the case of AATAGCACGTGGAGTA, the “relative binding free energy” value is reported as -0.17 kcal/mol. With TTGCACACGTGGGGTA the “relative binding free energy” value was -0.2 kcal/mol. With AGGAACACGTGTTTGT the “relative binding free energy” value was -0.03 kcal/mol. For AGGAGCACGTGATTTA, the “relative binding free energy” value was 0.08 kcal/mol. In the case of CTAGGCACGTGTAGGG, the “relative binding free energy” value is reported as -0.09 kcal/mol. For GCTTACACGTGAAGGG, the “relative binding free energy” value was 0.5 kcal/mol. With CGGGGCACGTGTTGGA the “relative binding free energy” value was -0.15 kcal/mol. TTACGCACGTGATTTA was tested, and the “relative binding free energy” value was 0 kcal/mol. In the case of ACGGGCACGTGGAGTG, the “relative binding free energy” value is reported as -0.17 kcal/mol. AGTGACACGTGGAGGA was tested, and the “relative binding free energy” value was -0.08 kcal/mol. GTTGTCACGTGCATTG was tested, and the “relative binding free energy” value was 0.05 kcal/mol. ATGGTCACGTGGGCAT was tested, and the “relative binding free energy” value was -0.1 kcal/mol. With CAGAGCACGTGAAGGG the “relative binding free energy” value was 0.33 kcal/mol. With ATTATCACGTGGGTCG the “relative binding free energy” value was -0.14 kcal/mol. With TCTAACACGTGGTGAG the “relative binding free energy” value was 0.02 kcal/mol. For ATTAGCACGTGACTTG, the “relative binding free energy” value was 0.09 kcal/mol. With TTCTTCACGTGTGGAG the “relative binding free energy” value was 0.33 kcal/mol. With TTGGTCACGTGACTTG the “relative binding free energy” value was 0.24 kcal/mol. TTCTACACGTGCGGGT was tested, and the “relative binding free energy” value was 0.16 kcal/mol. In the case of TATTACACGTGGGGCG, the “relative binding free energy” value is reported as 0.01 kcal/mol. For GGGTACACGTGAGTTG, the “relative binding free energy” value was 0.27 kcal/mol.
